Results on nine molecules are retold here after patent US20230250148A1 (published 2023).

Substitutions are numbered along the chain they refer to. Read-outs that look alike come from different tables or passages of the source.

The target in experiment [1] is T1, biotinylated human FcRn (human, UniProt P55899 partial chain; P61769 partial chain, limits assumed, biotinylated, site not stated).
T1 construct: Bought reagent (Immunitrack); composition not described; also called human FcRn receptor
Description: ELISA pH 5.5, fusion protein coated, biotinylated human FcRn titrated. For orientation: ELISA stands for enzyme-linked immunosorbent assay.

The target in experiment [2] is T1, biotinylated human FcRn. The description is as above. This is another data set of the same source.
T1 sequence (P55899 24-297 limits assumed, chain 1 of 2): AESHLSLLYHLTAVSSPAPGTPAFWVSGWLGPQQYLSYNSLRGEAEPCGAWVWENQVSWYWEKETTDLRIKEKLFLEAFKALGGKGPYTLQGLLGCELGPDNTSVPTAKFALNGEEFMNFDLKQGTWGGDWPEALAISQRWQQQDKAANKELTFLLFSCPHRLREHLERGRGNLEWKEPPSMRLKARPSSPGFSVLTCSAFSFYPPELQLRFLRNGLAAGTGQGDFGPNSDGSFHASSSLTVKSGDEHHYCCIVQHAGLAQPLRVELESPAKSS
T1 sequence (P61769 21-119 limits assumed, chain 2 of 2, further chain): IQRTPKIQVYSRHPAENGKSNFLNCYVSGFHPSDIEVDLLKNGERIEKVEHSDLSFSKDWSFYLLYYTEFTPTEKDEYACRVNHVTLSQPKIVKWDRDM
In experiment [3] the target is T1, biotinylated human FcRn. The experiment is described as above. This is another data set of the same source.
Experiment [4] deals with T2, biotinylated human complement component C1q (human, UniProt P02745; P02746; P02747, biotinylated, site not stated).
T2 construct: also called biotinylated-C1q
T2 sequence (P02745 23-245 limits assumed, chain 1 of 3): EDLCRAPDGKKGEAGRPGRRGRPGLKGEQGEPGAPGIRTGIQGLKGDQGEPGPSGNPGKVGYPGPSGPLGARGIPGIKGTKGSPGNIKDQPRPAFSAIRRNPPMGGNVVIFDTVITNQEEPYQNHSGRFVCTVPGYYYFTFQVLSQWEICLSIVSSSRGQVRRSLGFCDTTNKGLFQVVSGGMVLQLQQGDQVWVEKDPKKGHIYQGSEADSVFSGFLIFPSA
T2 sequence (P02746 28-253 limits assumed, chain 2 of 3, further chain): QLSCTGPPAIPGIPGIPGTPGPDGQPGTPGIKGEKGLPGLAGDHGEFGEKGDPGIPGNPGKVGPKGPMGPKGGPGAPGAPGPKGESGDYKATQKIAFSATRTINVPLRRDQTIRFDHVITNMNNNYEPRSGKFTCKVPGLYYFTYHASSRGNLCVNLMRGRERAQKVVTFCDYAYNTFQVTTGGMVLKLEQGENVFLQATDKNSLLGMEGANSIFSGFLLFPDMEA
T2 sequence (P02747 29-245 limits assumed, chain 3 of 3, further chain): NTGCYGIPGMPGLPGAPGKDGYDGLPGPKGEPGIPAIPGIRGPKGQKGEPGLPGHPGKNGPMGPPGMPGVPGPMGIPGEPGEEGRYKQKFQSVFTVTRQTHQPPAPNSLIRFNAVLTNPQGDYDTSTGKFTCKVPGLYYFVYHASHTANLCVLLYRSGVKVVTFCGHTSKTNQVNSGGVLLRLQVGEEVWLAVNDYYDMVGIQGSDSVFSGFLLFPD
Description: ELISA, fusion protein coated, biotinylated human C1q at 1000 ng/mL.

Experiment [5] deals with T3, biotinylated recombinant human Fc(gamma)RI (human, UniProt P12314 16-288, biotinylated, site not stated).
T3 construct: Bought reagent; construct not described; also called rhFc(gamma)RI; Fc(gamma) receptor I
T3 sequence (P12314 16-288 limits assumed): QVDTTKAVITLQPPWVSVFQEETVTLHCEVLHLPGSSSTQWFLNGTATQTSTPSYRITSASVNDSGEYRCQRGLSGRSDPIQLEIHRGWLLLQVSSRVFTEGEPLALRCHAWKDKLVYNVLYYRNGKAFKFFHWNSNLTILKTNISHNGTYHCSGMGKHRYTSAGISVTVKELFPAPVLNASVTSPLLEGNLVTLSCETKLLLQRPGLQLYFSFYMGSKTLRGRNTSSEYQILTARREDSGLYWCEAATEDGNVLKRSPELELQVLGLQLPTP
The experiment in a line: ELISA, fusion protein coated, biotinylated rhFc(gamma)RI at 3000 ng/mL.

In experiment [6] the target is T1, biotinylated human FcRn. The experiment in a line: ELISA pH 5.5, fusion protein coated, biotinylated human FcRn titrated. This is another data set of the same source.

B1: insulin-Fc fusion protein of SEQ ID NO: 96 (Fc fusion)
chain: FVNQHLCGSHLVEALALVCGERGFHYGGGGGGSGGGGGIVEQCCTSTCSLDQLENYCGGGGGQGGGGQGGGGQGGGGGQGGGG[no letters for human IgG1 Fc with N297S (EU numbers)]
In the experiment with biotinylated human FcRn [1], B1 showed an EC50 of 0.672 µg/mL.

B2: insulin-Fc fusion protein of SEQ ID NO: 97 (Fc fusion)
chain: FVNQHLCGSHLVEALALVCGERGFHYGGGGGGSGGGGGIVEQCCTSTCSLDQLENYCGGGGQGGGG[no letters for human IgG1 Fc with N297S (EU numbers)]
In the experiment with biotinylated human FcRn [1], B2 had an EC50 of 0.679 µg/mL.

B3: insulin-Fc fusion protein of SEQ ID NO: 89 (Fc fusion)
chain: B2 chain with Q62A
For the molecule B3, the EC50 with biotinylated human FcRn [1] stood at 0.657 µg/mL.

B4: insulin-Fc fusion protein of SEQ ID NO: 91 (Fc fusion)
chain: FVNQHLCGSHLVEALELVCGERGFHYGGGGGGSGGGGGIVEQCCTSTCSLDQLENYCGGGGGQGGGGQGGGGQGGGGG[no letters for human IgG1 Fc with N297S (EU numbers)]
notes: non-glycosylated
Take B4: the EC50 with biotinylated human FcRn [2] and with biotinylated human FcRn [3] was 0.943 µg/mL throughout.

B5: insulin-Fc fusion protein of SEQ ID NO: 84 (Fc fusion)
chain: FVNQHLCGSHLVEALALVCGERGFHYGGGGGGSGGGGGIVEQCCTSTCSLDQLENYCGGGGGQGGGGQGGGGQGGGGG[no letters for human IgG1 Fc with N297R (EU numbers)]
As for B5, in experiment [4], the “% reduction in C1q binding relative to SEQ ID NO: 76” value was greater than 80%. Moreover, the “% reduction in Fc(gamma)RI binding relative to SEQ ID NO: 76” value in experiment [5] is greater than 80%. The same molecule yielded an EC50 with biotinylated human FcRn [6] of 0.696 µg/mL.

B6: insulin-Fc fusion protein of SEQ ID NO: 87 (Fc fusion)
chain: B4 chain with E16A, Q63A, Q68A, Q73A
Turning to B6, the EC50 in the experiment with biotinylated human FcRn [1] stood at 0.701 µg/mL.

B7: insulin-Fc fusion protein of SEQ ID NO: 94 (Fc fusion)
chain: B5 chain with A16E
In the case of B7, the EC50 in the experiment with biotinylated human FcRn [2] came out at 0.913 µg/mL.

B8: insulin-Fc fusion protein of SEQ ID NO: 78 (Fc fusion)
chain: B4 chain with E16A
As to B8, the “% reduction in C1q binding relative to SEQ ID NO: 76” value in experiment [4] is greater than 80%. Further, the EC50 with biotinylated human FcRn [3] and with biotinylated human FcRn [1] was 0.825 µg/mL each time.

B9: insulin-Fc fusion protein of SEQ ID NO: 98 (Fc fusion)
chain: FVNQHLCGSHLVEALALVCGERGFHYGGGGGGSGGGGGIVEQCCTSTCSLDQLENY[no letters for human IgG1 Fc with N297S (EU numbers)]
In the experiment with biotinylated human FcRn [1], B9 returned an EC50 of 0.401 µg/mL.

One may read the EC50 as the concentration at which the effect is half-maximal. Read a low EC50 as an effect from little substance.
